This note sets out measurements from patent US11000038B2, “Pyridone compounds and agricultural and horticultural fungicides containing the same as active ingredients” (priority 2017, dated 2021).

Molecules are shown by their SMILES.

The test system of assay [1] is grape downy mildew fungus (Plasmopara viticola). As to the kind of experiment: Test Example G: grape downy mildew, spray treatment of grape plants. Conditions: grape downy mildew, 250 ppm spray, 7 to 10 days after inoculation.
Assay [2] concerns gray mold fungi (Botrytis cinerea). As to the kind of experiment: Test Example B: tomato gray mold, spray treatment of tomato plants. Conditions: tomato gray mold, spray treatment.
Assay [3] has as its system cabbage Alternaria sooty spot fungi (Alternaia brassicicola). As to the kind of experiment: Test Example C: cabbage Alternaria sooty spot, spray treatment of cabbage plants. The class given is in vivo. Conditions: cabbage Alternaria sooty spot, spray treatment. From the text:
[Test Example C] Cabbage Alternaria Sooty Spot
Test plants (cabbage variety: Shikidori) were cultivated until the cotyledons extended after the sowing of seeds.
<Control Value> Control value=100{1−(n/3)}

For assay [4], the system named is wheat brown rust fungi (Puccinia recondita). As to the kind of experiment: Test Example E: wheat brown rust, spray treatment of wheat plants. Format: in vivo. The note with it: wheat brown rust, spray treatment.
In assay [5] the test system is barley powdery mildew fungi (Blumeria graminis f. sp. hordei). As to the kind of experiment: Test Example D: barley powdery mildew, spray treatment of barley plants. Conditions: barley powdery mildew, spray treatment.

Regarding `CCc1c(-c2ccc(F)cc2F)n(-c2ccccc2)cc(Br)c1=O` [Compound 597], in assay [1], the “Test G control value” is given as “L (L shows the control value of 50% or less)”. Moreover, in assay [2], the “Test B control value” was “H (H shows the control value of more than 50%)”. Further, the “Test C control value” in assay [3] is “H (H shows the control value of more than 50%)”. Besides, in assay [4], the “Test E control value” was “H (H shows the control value of more than 50%)”. In addition, the “Test D control value” in assay [5] is recorded as “L (L shows the control value of 50% or less)”.

Turning to `COc1ccccc1-c1c(Cl)c(=O)c(Br)cn1-c1ccccc1` [Compound 599], the “Test G control value” in assay [1] was “L (L shows the control value of 50% or less)”. Besides, the “Test B control value” in assay [2] is reported as “H (H shows the control value of more than 50%)”. Besides, the “Test C control value” in assay [3] is listed as “L (L shows the control value of 50% or less)”. The “Test E control value” in assay [4] is given as “L (L shows the control value of 50% or less)”. Moreover, in assay [5], the “Test D control value” is “L (L shows the control value of 50% or less)”.

`Cc1cn(-c2ccccc2)c(-c2c(F)cccc2C(F)(F)F)c(C)c1=O` [Compound 601]: the “Test G control value” in assay [1] is recorded as “L (L shows the control value of 50% or less)”. For the same compound, the “Test B control value” in assay [2] is on record as “H (H shows the control value of more than 50%)”. Besides, the “Test C control value” in assay [3] is on record as “H (H shows the control value of more than 50%)”. Besides, the “Test E control value” in assay [4] is “H (H shows the control value of more than 50%)”. Also, the “Test D control value” in assay [5] is listed as “H (H shows the control value of more than 50%)”.

For `COc1ccc(Br)c(-n2cc(C)c(=O)c(C)c2-c2c(F)cccc2F)c1` [Compound 602], in assay [1], the “Test G control value” was “L (L shows the control value of 50% or less)”. For the same compound, the “Test B control value” in assay [2] is listed as “H (H shows the control value of more than 50%)”. Further, the “Test C control value” in assay [3] is given as “H (H shows the control value of more than 50%)”. Further, in assay [4], the “Test E control value” is “H (H shows the control value of more than 50%)”. For the same compound, the “Test D control value” in assay [5] is listed as “L (L shows the control value of 50% or less)”.

`O=c1c(Br)cn(-c2ccccc2)c(-c2cccc(F)c2F)c1Cl` [Compound 603]: in assay [1], the “Test G control value” is listed as “L (L shows the control value of 50% or less)”. Besides, the “Test B control value” in assay [2] is listed as “H (H shows the control value of more than 50%)”. Also, the “Test C control value” in assay [3] was “H (H shows the control value of more than 50%)”. Besides, the “Test E control value” in assay [4] is listed as “H (H shows the control value of more than 50%)”. Besides, the “Test D control value” in assay [5] is on record as “L (L shows the control value of 50% or less)”.

Turning to `O=c1c(Br)cn(-c2ccccc2)c(-c2ccc(F)c(F)c2)c1Cl` [Compound 604], the “Test G control value” in assay [1] was “L (L shows the control value of 50% or less)”. Besides, in assay [2], the “Test B control value” was “L (L shows the control value of 50% or less)”. In addition, the “Test C control value” in assay [3] is given as “H (H shows the control value of more than 50%)”. In addition, in assay [4], the “Test E control value” is “L (L shows the control value of 50% or less)”. Moreover, the “Test D control value” in assay [5] is given as “L (L shows the control value of 50% or less)”.

Turning to `COc1cccc(-n2cc(C)c(=O)c(C)c2-c2c(F)cccc2F)c1` [Compound 605], the “Test G control value” in assay [1] is “L (L shows the control value of 50% or less)”. Besides, the “Test B control value” in assay [2] is on record as “H (H shows the control value of more than 50%)”. The “Test C control value” in assay [3] is given as “H (H shows the control value of more than 50%)”. Further, the “Test E control value” in assay [4] was “H (H shows the control value of more than 50%)”. In addition, the “Test D control value” in assay [5] is on record as “H (H shows the control value of more than 50%)”.

As to `COc1ccc(-c2c(C)c(=O)c(C)cn2-c2cc(OC)ccc2C)cc1` [Compound 606], the “Test G control value” in assay [1] was “H (H shows the control value of more than 50%)”. In addition, the “Test B control value” in assay [2] is given as “H (H shows the control value of more than 50%)”. Also, the “Test C control value” in assay [3] was “H (H shows the control value of more than 50%)”. Further, the “Test E control value” in assay [4] is “H (H shows the control value of more than 50%)”. In addition, the “Test D control value” in assay [5] was “H (H shows the control value of more than 50%)”.

On to `O=c1c(Br)cn(-c2ccccc2)c(-c2c(F)cccc2Br)c1Cl` [Compound 607], for which, in assay [1], the “Test G control value” is on record as “L (L shows the control value of 50% or less)”. Moreover, the “Test B control value” in assay [2] is “H (H shows the control value of more than 50%)”. The “Test C control value” in assay [3] is recorded as “H (H shows the control value of more than 50%)”. Besides, the “Test E control value” in assay [4] is recorded as “H (H shows the control value of more than 50%)”. Besides, the “Test D control value” in assay [5] is “L (L shows the control value of 50% or less)”.

Regarding `Cc1cn(-c2ccccc2)c(-c2c(F)cccc2Br)c(C)c1=O` [Compound 608], in assay [1], the “Test G control value” is listed as “H (H shows the control value of more than 50%)”. The “Test B control value” in assay [2] is on record as “H (H shows the control value of more than 50%)”. Further, the “Test C control value” in assay [3] is on record as “H (H shows the control value of more than 50%)”. The “Test E control value” in assay [4] is listed as “H (H shows the control value of more than 50%)”. For the same compound, in assay [5], the “Test D control value” was “L (L shows the control value of 50% or less)”.

Take `Cc1cccc(F)c1-c1c(Cl)c(=O)c(Br)cn1-c1ccccc1` [Compound 609]: the “Test G control value” in assay [1] is on record as “L (L shows the control value of 50% or less)”. For the same compound, the “Test B control value” in assay [2] is “H (H shows the control value of more than 50%)”. The “Test C control value” in assay [3] was “H (H shows the control value of more than 50%)”. In addition, the “Test E control value” in assay [4] is given as “H (H shows the control value of more than 50%)”. Besides, in assay [5], the “Test D control value” is “L (L shows the control value of 50% or less)”.

For the compound `Cc1cccc(F)c1-c1c(C)c(=O)c(C)cn1-c1ccccc1` [Compound 610], the “Test G control value” in assay [1] is listed as “L (L shows the control value of 50% or less)”. In addition, the “Test B control value” in assay [2] was “H (H shows the control value of more than 50%)”. Besides, the “Test C control value” in assay [3] was “H (H shows the control value of more than 50%)”. For the same compound, the “Test E control value” in assay [4] is “H (H shows the control value of more than 50%)”. Also, the “Test D control value” in assay [5] was “L (L shows the control value of 50% or less)”.

With `COc1cccc(F)c1-c1c(Cl)c(=O)c(Br)cn1-c1ccc(Br)cc1` [Compound 612], the “Test G control value” in assay [1] is listed as “H (H shows the control value of more than 50%)”. Moreover, the “Test B control value” in assay [2] is on record as “L (L shows the control value of 50% or less)”. Besides, the “Test C control value” in assay [3] is on record as “L (L shows the control value of 50% or less)”. The “Test E control value” in assay [4] is “L (L shows the control value of 50% or less)”. The “Test D control value” in assay [5] was “L (L shows the control value of 50% or less)”.

Turning to `CCc1c(-c2ccc(F)cc2Br)n(-c2ccccc2)cc(Br)c1=O` [Compound 613], the “Test G control value” in assay [1] is on record as “L (L shows the control value of 50% or less)”. In addition, the “Test B control value” in assay [2] is “H (H shows the control value of more than 50%)”. Also, the “Test C control value” in assay [3] was “H (H shows the control value of more than 50%)”. Besides, the “Test E control value” in assay [4] was “H (H shows the control value of more than 50%)”. Also, the “Test D control value” in assay [5] was “L (L shows the control value of 50% or less)”.

Regarding `Cc1cn(-c2ccccc2)c(-c2cccc(F)c2F)c(C)c1=O` [Compound 615], the “Test G control value” in assay [1] is recorded as “H (H shows the control value of more than 50%)”. Further, the “Test B control value” in assay [2] is reported as “H (H shows the control value of more than 50%)”. Moreover, the “Test C control value” in assay [3] is listed as “H (H shows the control value of more than 50%)”. The “Test E control value” in assay [4] is given as “H (H shows the control value of more than 50%)”. Also, the “Test D control value” in assay [5] is recorded as “L (L shows the control value of 50% or less)”.

Turning to `Cc1cn(-c2ccccc2)c(-c2ccc(F)c(F)c2)c(C)c1=O` [Compound 616], the “Test G control value” in assay [1] is “H (H shows the control value of more than 50%)”. Also, the “Test B control value” in assay [2] is on record as “H (H shows the control value of more than 50%)”. Besides, the “Test C control value” in assay [3] is “H (H shows the control value of more than 50%)”. In addition, the “Test E control value” in assay [4] is “H (H shows the control value of more than 50%)”. In assay [5], the “Test D control value” is recorded as “L (L shows the control value of 50% or less)”.

As to `CCc1ccc(OC)cc1-n1cc(C)c(=O)c(C)c1-c1c(F)cccc1F` [Compound 617], in assay [1], the “Test G control value” is on record as “H (H shows the control value of more than 50%)”. Further, the “Test B control value” in assay [2] is listed as “H (H shows the control value of more than 50%)”. Also, the “Test C control value” in assay [3] was “H (H shows the control value of more than 50%)”. Also, in assay [4], the “Test E control value” is “H (H shows the control value of more than 50%)”. Besides, the “Test D control value” in assay [5] is reported as “H (H shows the control value of more than 50%)”.

As for `CCc1ccc(OCC#N)cc1-n1cc(C)c(=O)c(C)c1-c1c(F)cccc1F` [Compound 619], in assay [1], the “Test G control value” was “H (H shows the control value of more than 50%)”. Also, in assay [2], the “Test B control value” is “H (H shows the control value of more than 50%)”. The “Test C control value” in assay [3] is on record as “H (H shows the control value of more than 50%)”. Besides, the “Test E control value” in assay [4] is “H (H shows the control value of more than 50%)”. The “Test D control value” in assay [5] is given as “H (H shows the control value of more than 50%)”.

As for `CCc1c(-c2ccc(F)cc2C)n(-c2ccccc2)cc(Br)c1=O` [Compound 622], the “Test G control value” in assay [1] was “H (H shows the control value of more than 50%)”. In assay [2], the “Test B control value” is given as “L (L shows the control value of 50% or less)”. Also, the “Test C control value” in assay [3] is on record as “H (H shows the control value of more than 50%)”. Also, the “Test E control value” in assay [4] is on record as “L (L shows the control value of 50% or less)”. Moreover, the “Test D control value” in assay [5] was “L (L shows the control value of 50% or less)”.
